Measured values as given in PubChem BioAssay AID488969 (Vanderbilt High Throughput Screening Facility, 2010).
The full ranking holds about 110,000 compounds; the median of “z-score” is about -0.1, and the highest 2% start at about 2. Some of the results follow. Activity calls are given as the source filed them.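 The calls were made as follows: active = z-score in the third read window above 3 or below -3; inactive = the rest.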

Each compound was assayed against Metabotropic glutamate receptor 8 (Rattus norvegicus) (UniProt P70579) (assay: rat mGluR8 modulators via GIRK flux, primary screen, cell-based, thallium flux, HTS (AID 488969)). Conditions: HEK293 rat mGluR8, GIRK (G protein-gated inwardly rectifying potassium channel) thallium flux, FluoZin2; at 10 µM; stronger effect = higher value; submaximal glutamate (EC20) added with thallium.
UniProt P70579, sequence (P70579 whole entry, looked up): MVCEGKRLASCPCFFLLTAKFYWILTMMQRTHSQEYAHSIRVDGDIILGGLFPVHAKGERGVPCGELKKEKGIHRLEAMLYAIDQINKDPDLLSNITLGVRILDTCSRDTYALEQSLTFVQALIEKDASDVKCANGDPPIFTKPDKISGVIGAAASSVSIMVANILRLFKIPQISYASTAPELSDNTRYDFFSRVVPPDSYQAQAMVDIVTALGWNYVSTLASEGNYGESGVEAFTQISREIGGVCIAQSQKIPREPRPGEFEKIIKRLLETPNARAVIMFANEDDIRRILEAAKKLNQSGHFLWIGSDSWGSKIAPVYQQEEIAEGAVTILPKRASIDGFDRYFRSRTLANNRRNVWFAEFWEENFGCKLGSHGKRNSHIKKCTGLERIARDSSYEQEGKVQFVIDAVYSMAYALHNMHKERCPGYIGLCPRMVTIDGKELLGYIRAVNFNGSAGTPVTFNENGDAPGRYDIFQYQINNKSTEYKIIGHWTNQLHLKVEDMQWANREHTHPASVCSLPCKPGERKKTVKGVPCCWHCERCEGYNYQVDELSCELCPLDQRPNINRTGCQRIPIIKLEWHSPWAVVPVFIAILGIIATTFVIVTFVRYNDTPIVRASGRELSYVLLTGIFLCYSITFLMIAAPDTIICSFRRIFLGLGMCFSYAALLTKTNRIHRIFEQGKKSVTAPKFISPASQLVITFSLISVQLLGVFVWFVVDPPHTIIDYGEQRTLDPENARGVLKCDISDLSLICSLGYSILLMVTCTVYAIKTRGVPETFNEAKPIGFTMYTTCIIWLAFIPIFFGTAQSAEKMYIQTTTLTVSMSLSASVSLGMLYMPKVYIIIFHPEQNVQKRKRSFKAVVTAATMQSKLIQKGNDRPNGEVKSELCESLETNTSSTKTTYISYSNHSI
For CSCCC(C(=O)N1CC2(C)CC1CC(C)(C)C2)N1C(=O)c2ccccc2C1=O (stereo unspecified), the z-score was -0.567.
O=C1c2ccccc2NC(c2cn[nH]c2-c2ccccc2)N1O (stereo unspecified) showed a z-score of -0.0761.
In the case of Cc1ccc(-c2nc(N)s[n+]2-c2ccccc2)cc1, the z-score is reported as -0.115.
Compound CCOc1cc(C2CC(=O)NC3=C2C(=O)C(C(=O)OC)C(C)C3)cc(Br)c1O (stereo unspecified) has a z-score of 0.919.
CCc1nc(SCC(=O)Nc2nnc(CC)s2)c2c(C)c(C)sc2n1 was tested, and the z-score was active: 8.71.
With O=C(NCC1CCCO1)c1cccc(NC(=O)c2ccco2)c1 (stereo unspecified) the z-score was 0.651.
In the case of O=C(NCc1ccco1)C(C(=O)c1ccc(F)cc1)n1ccccc1=O (stereo unspecified), the z-score is reported as -0.255.
COc1ccc(C2CC(C(F)(F)F)n3ncc(C(=O)Nc4cccc(O)c4)c3N2)cc1OC (stereo unspecified) gave a z-score of 0.161.
COc1ccc(C(=O)N2CCN(C(=O)CC(C)C)CC2)cc1OC showed a z-score of -0.432.
For Nc1nonc1NC(=O)CSc1ncccc1C(=O)O, the z-score was -0.104.
In the case of O=C(CCCC(=O)N(c1ccc2c(c1)OCCO2)C(C(=O)NC1CCCCC1)c1ccc(Cl)cc1)Nc1ccccn1 (stereo unspecified), the z-score is reported as -1.41.
With CCN(Cc1ccccc1)Cc1c(C)[nH]c2c(C)c(C)ccc2c1=O the z-score was -0.4.
With CCOC(=O)C1=C(C)NC2=C(C(=O)C(C(=O)OCC)C(c3cccc(OC)c3)C2)C1c1ccccn1 (stereo unspecified) the z-score was active: -3.81.
COc1c[nH]n(C2CCCCC2)c(=O)c1=O gave a z-score of -0.0425.
Compound CCOc1cc(C(=O)OCc2ccc(C(=O)OC)o2)cc(Br)c1OC has a z-score of 1.86.
For Cc1noc(-c2ccccc2OC(=O)c2ccccc2)n1, the z-score was -1.
COc1cccc(OCC(O)CN2C(C)CCCC2C)c1 (stereo unspecified) gave a z-score of 0.438.
Cc1ccc(-c2nc(SCC(N)=O)c(C#N)c3c2CCCC3)cc1 was tested, and the z-score was -0.427.
Cc1nc(C(=O)Nc2ccccc2Cl)cc2c1[nH]c1ccccc12 gave a z-score of -0.494.
Cc1ccc(C(=O)N2CCN(C(=O)N3CCOCC3)CC2)cc1 gave a z-score of -0.213.
In the case of Cc1cc(C)nc(NC2=NCC(=O)N2c2ccc(Cl)cc2)n1, the z-score is reported as 0.381.
CC1=C(C(=O)N2CCOCC2)C(c2ccccc2F)C2=C(CCCC2=O)N1 (stereo unspecified) was tested, and the z-score was -0.0832.
O=C(CSCC(=O)NC1CC1)Nc1ccccc1 showed a z-score of 0.615.
O=C(CNC(=O)c1ccco1)OCC(=O)c1cccc2ccccc12 gave a z-score of 1.54.
c1cncc(-c2noc(-c3cccc4ccccc34)n2)c1 was tested, and the z-score was 0.429.
Compound O=C(/C=C/c1ccc(S(=O)(=O)N2CCOCC2)cc1)NC(=S)Nc1ccc(N2CCOCC2)cc1 has a z-score of -0.176.
For COC(=O)c1ccc(C(=O)OC)c(NC(=O)CSCc2ccc(Br)cc2)c1, the z-score was 0.742.
For COC(=O)C1(O)CC(C(C)C)=NN1C(=O)c1ccc(Cl)cc1 (stereo unspecified), the z-score was 0.417.
In the case of CCC1(C)Cc2c(sc3c2c(=O)n(C)c2nnc(SCC(=O)c4ccc(Cl)cc4)n32)CO1 (stereo unspecified), the z-score is reported as 0.0466.
N#CC1=C(N)N(c2ccc(F)cc2)C(=O)C1 showed a z-score of -0.105.
Work on CN(C)S(=O)(=O)c1ccc(Oc2ccccc2)cc1 yielded a z-score of -0.0436.
Work on N#Cc1nc(-c2ccccc2F)oc1NC1CCCCC1 yielded a z-score of 0.183.
With O=C(c1cccc(F)c1)N1CCN=C1SCc1cccnc1 the z-score was 0.324.
For CS(=O)(=O)N(Cc1ccccc1)c1ccccc1C(=O)N1CCN(c2ccccc2)CC1, the z-score was -0.198.
In the case of Cc1cccc(C)c1-n1c(C)cc(/C=C2\C(=O)NN(c3ccccc3)C2=O)c1C, the z-score is reported as -0.192.
C=CCN1C(=O)C(CC(=O)Nc2ccccc2)SC1=Nc1ccc(S(N)(=O)=O)cc1 (stereo unspecified) gave a z-score of -0.289.
For CCCc1oc(C(=O)O)cc1CN1CCOCC1, the z-score was -0.0388.
For CCCCNC(=S)NNC(=O)c1ccoc1C, the z-score was -0.0127.
COc1ccc(CCN2C(=O)CC(N3CCN(c4ccccn4)CC3)C2=O)cc1OC (stereo unspecified) showed a z-score of -0.121.
O=C(NNS(=O)(=O)c1ccc(F)cc1F)C1Cc2c(ccc3ccccc23)O1 (stereo unspecified) showed a z-score of 0.0656.
CCC1CCCCN1CCn1c(=S)[nH]c2cc(OC)c(OC)cc2c1=O (stereo unspecified) gave a z-score of 2.07.
With CN1/C(=C/C(=O)c2ccc(Cl)cc2)Sc2cc3c(cc21)OCO3 the z-score was -1.93.
CCOC(=O)C(C)n1nc(/C=C/c2ccccc2)ccc1=O (stereo unspecified) was tested, and the z-score was -0.174.
In the case of COc1ccc(CCNC(=O)C(=O)NCc2ccccc2)cc1OC, the z-score is reported as -0.0128.
CCOc1ccc(NC(=O)c2sc(N3CCOCC3)nc2-c2ccccc2)cc1 showed a z-score of 0.00027.
Cc1cc(C)n2nc(SCC(=O)N3CCc4ccccc43)nc2n1 was tested, and the z-score was 0.255.
Compound COc1ccc(/C=N/NC2=NCCCCC2)cc1 has a z-score of -0.00887.
Cc1noc(C)c1C(=O)Nc1nc(C23CC4CC(CC(C4)C2)C3)cs1 gave a z-score of -0.213.
For COc1ccccc1OCC(=O)Nc1cc(Cl)ccc1Oc1ccccc1, the z-score was 1.03.
Compound Cc1cccc(C(=O)NC(=S)NNC(=O)Cc2ccccc2)c1 has a z-score of 1.8.
Work on Cc1ccnc(SCC(=O)O)n1 yielded a z-score of 0.319.
CC(=O)NC(Cc1cccc(C)c1)C(=O)NC1CCN(C(=O)c2ccc([N+](=O)[O-])cc2)CC1 (stereo unspecified) gave a z-score of 0.194.
Compound CC(C)(C)n1nnnc1C(c1cccc(C#N)c1)N1CCCc2ccccc21 (stereo unspecified) has a z-score of -0.782.
In the case of CCn1c(=O)c(=O)[nH]c2cc(C(=O)N3CCN(c4ccccc4F)CC3)ccc21, the z-score is reported as -1.25.
Work on COc1ccc(N2CCN(C(=O)COc3ccc(Cl)cc3Cl)CC2)cc1 yielded a z-score of 0.0278.
Compound COc1ccc(OCCN2C(=O)NC(C)(c3ccc(C)cc3)C2=O)cc1 (stereo unspecified) has a z-score of -0.361.
Work on COc1ccc(C2C(C(=O)c3cccs3)=C(O)C(=O)N2c2nncs2)cc1 (stereo unspecified) yielded a z-score of -0.0675.
For Cc1cccc(N2C(=O)c3cccnc3C2=O)c1, the z-score was -0.144.
CC(C)(C)OC(=O)NC(CCCCNC=O)C(=O)O (stereo unspecified) showed a z-score of 0.0405.
For O=C1CC(c2ccc(Cl)c([N+](=O)[O-])c2)c2ccc3ccccc3c2N1 (stereo unspecified), the z-score was -0.142.
COc1cccc(C(=O)CSc2nnc(CNc3nc(-c4ccccc4)cs3)n2C)c1 was tested, and the z-score was -0.0511.
Compound CCN1/C(=C\C(C)=O)Sc2ccc(OC)cc21 has a z-score of 0.974.
With COC(=O)c1c(NC(C)=O)sc2c1CCCC2 the z-score was -0.117.
For O=C(NCCN1CCOCC1)c1ccc2c(c1)N(Cc1ccccc1)CCS2, the z-score was -1.4.
CCc1ccc(OCCNC(=O)c2ccccc2SCc2ccccc2)cc1 was tested, and the z-score was -0.139.
Work on CC1(C)CC(=O)c2sc(NC(=O)c3ccco3)nc2C1 yielded a z-score of -0.147.
COn1c(SCc2cccnc2)nc2ccccc2c1=O was tested, and the z-score was -0.128.
Compound O=C(O)CC(C(=O)Nc1cccc(C(F)(F)F)c1)C1CCCO1 (stereo unspecified) has a z-score of 0.439.
Work on CCCOc1ccc(C(=O)N2CCCC2)cc1OC yielded a z-score of -0.411.
In the case of CCOC(=O)/C(=N\Nc1cc(C(F)(F)F)ccc1Cl)N(CC)CC, the z-score is reported as -0.0824.
For Cc1cccc(C)c1NC1=NC(=S)N(c2ccccc2)C12CCOC(C)(C)C2 (stereo unspecified), the z-score was 0.847.
In the case of Cc1cccc(NC(=O)CSc2nnc(C)n2Cc2ccccc2)c1, the z-score is reported as 0.163.
Compound CCOc1ccc(C(=O)NN2C(=O)C3C4C=CC(O4)C3C2=O)cc1 (stereo unspecified) has a z-score of -0.182.
In the case of O=C(CSc1ncn[nH]1)NCCCc1ccccc1, the z-score is reported as 0.695.
For Oc1ccc(C(c2nnnn2C2CCCC2)N2CCc3ccccc3C2)cc1 (stereo unspecified), the z-score was -1.22.
CC(C)(C)C(=O)C(Cc1ccccc1Cl)n1cncn1 (stereo unspecified) showed a z-score of 0.56.
For CCc1ccc(NC(=O)COC(=O)CN2C(=O)COc3ccccc32)cc1, the z-score was 0.0972.
CSc1ccc(/C=C(\C#N)C(=O)Nc2cccc(C)c2)cc1 gave a z-score of -0.114.
For Cc1cc(C)cc(NC(=O)N2CCCC2C(=O)Nc2ccc(-n3cnnn3)c(C)c2)c1 (stereo unspecified), the z-score was -0.104.
In the case of COCCCn1c2nc3ccccc3nc2c2c(=O)n(-c3ccccc3OC)cnc21, the z-score is reported as -0.0755.
Work on O=C(O)CCN1Cc2ccccc2C1=O yielded a z-score of 1.76.
Work on CCOC(=O)c1c(C)[nH]c(C(=O)OCC(=O)NC2CCS(=O)(=O)C2)c1C (stereo unspecified) yielded a z-score of -0.115.
CCc1c(C(=O)Nc2ccc(S(=O)(=O)N3CCOCC3)cc2)csc1C was tested, and the z-score was -0.0949.
Work on CS(=O)(=O)N(CC(=O)N1CCN(Cc2ccccc2)CC1)c1ccc2c(c1)OCCO2 yielded a z-score of -0.0915.
With COc1ccc(NC(=S)NCc2cccs2)c(OC)c1 the z-score was 0.102.
Work on COC(=O)c1oc2ccc(Br)cc2c1NC(=O)CN1CCN(C)CC1 yielded a z-score of 2.22.
N#Cc1c2n(c3c(=S)nc[nH]c13)CCCCC2 gave a z-score of 2.2.
With Cc1ccccc1CS(=O)(=O)Cc1ccc(C(=O)NCC2CCCO2)o1 (stereo unspecified) the z-score was 0.717.
O=C(Nc1ccc(N2CCOCC2)cc1)C1CCCN(S(=O)(=O)c2cccc(C(F)(F)F)c2)C1 (stereo unspecified) was tested, and the z-score was 2.63.
CCOC(=O)COc1ccc2c(c1)C(=O)CC1(CCCCC1)O2 showed a z-score of -0.292.
CS(=O)(=O)N(CC(=O)NCCSc1ccccn1)c1cccc2ccccc12 showed a z-score of 0.212.
Compound CCCn1c(-c2cccnc2Cl)nc2cc(Cl)c(Cl)cc21 has a z-score of -0.165.
Work on CCOc1ccc(OCc2ccc(C(=O)N3CCCC3)o2)cc1 yielded a z-score of -0.226.
COc1ccccc1C(=O)NNC(=O)c1cccc(F)c1 showed a z-score of -0.0578.
CCOc1ccc(NC(=O)N(CCN(C)C)C(C)c2ccncc2)cc1 (stereo unspecified) showed a z-score of -0.191.
O=C(CCCn1c(=O)[nH]c2cc(Cl)ccc2c1=O)N1CCN(c2ccc([N+](=O)[O-])cc2)CC1 showed a z-score of -0.143.
O=[N+]([O-])c1ccc(/C=N/Nc2nc(N3CCCCC3)nc(N3CCCCC3)n2)o1 was tested, and the z-score was -0.175.
For COc1ccc(N2CCN(CC(=O)NC(=O)NCc3ccco3)CC2)cc1, the z-score was -0.015.
Compound CC1(C)CC(=O)c2c(nc(SCC(=O)Nc3nsc(-c4ccccc4)n3)c(C#N)c2-c2ccccc2)C1 has a z-score of -0.627.
COC(=O)c1cscc1NC(C)=O was tested, and the z-score was 0.0475.
Work on CN(C)c1ccnc2sc3c(=O)n(-c4ccccc4)cnc3c12 yielded a z-score of 0.0117.
CC(C)(C)OC(=O)NC(CCNC=C1C(=O)OC(C)(C)OC1=O)C(=O)O (stereo unspecified) showed a z-score of 0.0319.
Compound COc1ccccc1C(c1nnnn1CC1CCCO1)N1CCC(C(N)=O)CC1 (stereo unspecified) has a z-score of 0.0288.
For CCn1c(SCC(=O)Nc2ccccc2N2CCCCC2)nc2c1c(=O)n(C)c(=O)n2C, the z-score was -0.541.
O=C(Nc1nc2cc(Cl)ccc2s1)C1CCCN(S(=O)(=O)c2cccc3cccnc23)C1 (stereo unspecified) showed a z-score of 0.315.
With COC(=O)C(CCSC)NC(=O)CNS(=O)(=O)c1ccc(F)cc1 (stereo unspecified) the z-score was 0.00793.
For CCOC(=O)c1cc(C(=O)c2cc(F)ccc2O)coc1=N, the z-score was -0.462.
In the case of CCN1CCN(CCC(=O)Nc2cccc(OC)c2)CC1, the z-score is reported as 0.0688.
Compound O=C(CCn1nc(-c2ccc(Cl)cc2)ccc1=O)N1CCOCC1 has a z-score of 0.172.
c1nc(NCC2CCCO2)c2[nH]cnc2n1 (stereo unspecified) showed a z-score of 0.26.
For Cc1cc(C)n(-c2nc(-n3nc(C)cc3C)c3c4c(sc3n2)COC(C)(C)C4)n1, the z-score was 0.613.
